{
  "source": "patent US20130331325A1",
  "about": "(published 2013)",
  "target": "T1, ligand-binding domain of human FGFR1c (D142 to R365) (human, UniProt P11362 142-365)",
  "T1 chain": "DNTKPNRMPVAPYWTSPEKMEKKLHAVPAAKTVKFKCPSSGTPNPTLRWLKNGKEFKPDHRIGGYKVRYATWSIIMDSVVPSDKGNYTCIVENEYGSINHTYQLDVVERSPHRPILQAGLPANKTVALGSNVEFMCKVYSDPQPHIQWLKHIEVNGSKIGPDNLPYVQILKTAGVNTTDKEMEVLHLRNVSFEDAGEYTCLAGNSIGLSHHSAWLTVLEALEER",
  "test": "SPR",
  "data": [
    {"binder": "N-terminally hexahistidine-tagged, mature form of human FGF19 ([…]) (ligand) not shown", "values": [
      {"measurement": "Kd", "value": 1910, "unit": "nM"}
    ]},
    {"binder": "human FGF2 ([…]) (ligand) not shown", "values": [
      {"measurement": "Kd", "value": 58, "unit": "nM"}
    ]}
  ]
}
